From PubChem BioAssay (NCATS)
Inconclusive results, whose numbers are uncertain, are shown with a selection of clear calls. No potency is given beside an inconclusive call; the fits are too rough. Calls of active or inactive are those of the source. Calls follow the shape of the dose curve; as a rule, active = well fitted curve in the direction sought with a large enough effect; inconclusive = small, poorly fitted or top-dose-only effect, or another doubt; inactive = no such curve, though single readings can be large; an effect the other way counts as inactive or inconclusive.

Experiments:
[1] = qHTS of pediatric cancer cell lines to identify multiple opportunities for drug repurposing: Primary screen for OHS-50 cells (AID 1347103); also: nearly all actives have a fitted effect of over 40% in size
Procedure, shortened: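 Cells (500-1,000/well) rested 5 h, then received compounds for 48 h; metabolically active cells were measured by CellTiter-Glo luminescence. Final concentrations spanned up to 46 µM (MIPE, 11-point) or 0.59 nM-46 µM (NPC, 8-point) in primary screens, 11-point in follow-ups.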

[2] = qHTS of pediatric cancer cell lines to identify multiple opportunities for drug repurposing: Primary screen for RD cells (AID 1347104); also: nearly all actives have a fitted effect of over 55% in size
Procedure, shortened: (§1)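 Phenotypic viability qHTS, 48 h compound exposure, CellTiter-Glo luminescence read-out; multi-concentration dosing so that potency and efficacy derive directly from the primary screen's curves.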

[3] = qHTS of pediatric cancer cell lines to identify multiple opportunities for drug repurposing: Primary screen for MG 63 (6-TG R) cells (AID 1347105); settings: MG 63 (6-TG R) viability, CellTiter-Glo, 48 h; series mostly up to 46 µM; also: nearly all actives have a fitted effect of over 50% in size
Procedure, shortened: as §1

[4] = qHTS of pediatric cancer cell lines to identify multiple opportunities for drug repurposing: Primary screen for Rh30 cells (AID 1347107); also: nearly all actives have a fitted effect of over 75% in size
Procedure, shortened: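 Viability after 48 h compound treatment at 37C, 500-1,000 cells/well, read as ATP luminescence with CellTiter-Glo. Primary screens used 11-point (MIPE, 0.78 nM-46 µM) or 8-point (NPC, 0.59 nM-46 µM) final concentrations; follow-up screens used 11-point dilutions.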

[5] = qHTS of pediatric cancer cell lines to identify multiple opportunities for drug repurposing: Primary screen for Rh41 cells (AID 1347108); also: nearly all actives have a fitted effect of over 70% in size
Procedure, shortened: as §1

[6] = qHTS of pediatric cancer cell lines to identify multiple opportunities for drug repurposing: Primary screen for control Hh wild type fibroblast cells (AID 1347106); also: nearly all actives have a fitted effect of over 55% in size
Procedure, shortened: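 Cells (500-1,000/well) in growth media were settled 5 h at 37 degrees C, then given compounds for 48 h. Viability was read as CellTiter-Glo luminescence. Primary runs used MIPE at 11 points (0.78 nM-46 µM) and NPC at 8 points (0.59 nM-46 µM); follow-ups used 11 points.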
Potency is read from the fitted curve at half-maximal effect; tags tell the direction and shape of the fitted curve.

Compound | Potency [1] | Potency [2] | Potency [3] | Potency [4] | Potency [5] | Potency [6]
CCCn1c(=O)c2[nH]c(C34CC5CC3C[C@@H](C5)C4)nc2n(CCC)c1=O | inconclusive [cytotoxic, partial curve] | inconclusive [cytotoxic, partial curve, poor fit] | inconclusive [cytotoxic, partial curve] | inconclusive [cytotoxic, partial curve] | inconclusive [cytotoxic, partial curve, poor fit] | 
C[C@H](NC(=O)[C@@H](O)c1cc(F)cc(F)c1)C(=O)N[C@@H]1C(=O)N(C)c2ccccc2-c2ccccc21 | inactive | inconclusive [cytotoxic, partial curve, poor fit] | inconclusive [cytotoxic, partial curve] |  | inconclusive [cytotoxic, partial curve] | 
CC(C(=O)O)c1ccc(-c2ccccc2)c(F)c1 (configuration not stated) | inconclusive [cytotoxic, partial curve] | inconclusive [cytotoxic, partial curve] | inactive | inconclusive [cytotoxic, partial curve] | inconclusive [cytotoxic, partial curve] | inconclusive [cytotoxic, partial curve, poor fit]
CC1(C)CC(O)CC(C)(C)N1[O] | inconclusive [cytotoxic, partial curve, poor fit] | inactive |  |  |  | 
